Results from patent US12458818B2, “Anti-trophoblast cell surface antigen 2 (TROP2) antibodies and antibody drug conjugates comprising same” (CSPC MEGALITH BIOPHARMACEUTICAL CO., LTD., priority 2019, dated 2025).

T1: human TROP2 (Homo sapiens, UniProt P09758)
T1 sequence (P09758 27-323): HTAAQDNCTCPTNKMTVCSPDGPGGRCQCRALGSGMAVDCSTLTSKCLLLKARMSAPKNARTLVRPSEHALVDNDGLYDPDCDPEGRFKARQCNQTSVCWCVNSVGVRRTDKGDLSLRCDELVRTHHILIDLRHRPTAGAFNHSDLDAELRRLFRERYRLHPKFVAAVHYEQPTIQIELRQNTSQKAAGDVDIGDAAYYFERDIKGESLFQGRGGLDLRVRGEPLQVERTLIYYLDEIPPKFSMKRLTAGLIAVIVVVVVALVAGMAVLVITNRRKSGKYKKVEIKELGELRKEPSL


Biological target: T1, human TROP2
Experiment: SPR affinity ranking of humanized antibodies (Table 8C)
Type: binding

Molecule | Ka | Kd (1/s) | Rmax (RU) | Kd
HC5/LC1 (antibody) heavy: EVQLVQSGAEVKKPGESLKISCKGSGYTFTDYSINWVRQMPGKGLEWMGVISTYYGDASYNQKFKGQVTISADKSISTAYLQWSSLKASDTAMYYCARYGDGYNQFDYWGQGTLVTVSS[human IgG1 constant region cut from this listing] light: DIVMTQSPDSLAVSLGERATINCRVSESVDSYGNNFMHWYQQKPGQPPKLLIYRASNLESGVPDRFSGSGSGTDFTLTISSLQAEDVAVYYCQQSYEDPYTFGQGTKLEIKRTVAAPSVFIFPPSDEQLKSGTASVVCLLNNFYPREAKVQWKVDNALQSGNSQESVTEQDSKDSTYSLSSTLTLSKADYEKHKVYACEVTHQGLSSPVTKSFNRGEC | 1.6e+06 M⁻¹ s⁻¹ | 0.000235 s⁻¹ | 44.2 RU | 
HC5/LC3: humanized anti-TROP2 antibody, heavy chain SEQ ID NO: 56, light chain SEQ ID NO: 60 (antibody) heavy: EVQLVQSGAEVKKPGESLKISCKGSGYTFTDYSINWVRQMPGKGLEWMGVISTYYGDASYNQKFKGQVTISADKSISTAYLQWSSLKASDTAMYYCARYGDGYNQFDYWGQGTLVTVSS[human IgG1 constant region cut from this listing] light: DIVMTQSPLSLPVTPGEPASISCRVSESVDSYGNNFMHWYLQKPGQSPQLLIYRASNLESGVPDRFSGSGSGTDFTLKISRVEAEDVGVYYCQQSYEDPYTFGGGTKVEIKRTVAAPSVFIFPPSDEQLKSGTASVVCLLNNFYPREAKVQWKVDNALQSGNSQESVTEQDSKDSTYSLSSTLTLSKADYEKHKVYACEVTHQGLSSPVTKSFNRGEC | 1.46e+06 M⁻¹ s⁻¹ | 0.000266 s⁻¹ | 34.3 RU | 
HC5/LC2: humanized anti-TROP2 antibody, heavy chain SEQ ID NO: 56, light chain SEQ ID NO: 59 (antibody) heavy: EVQLVQSGAEVKKPGESLKISCKGSGYTFTDYSINWVRQMPGKGLEWMGVISTYYGDASYNQKFKGQVTISADKSISTAYLQWSSLKASDTAMYYCARYGDGYNQFDYWGQGTLVTVSS[human IgG1 constant region cut from this listing] light: DVVMTQSPLSLPVTLGQPASISCRVSESVDSYGNNFMHWFQQRPGQSPRRLIYRASNLESGVPDRFSGSGSGTDFTLKISRVEAEDVGVYYCQQSYEDPYTFGGGTKVEIKRTVAAPSVFIFPPSDEQLKSGTASVVCLLNNFYPREAKVQWKVDNALQSGNSQESVTEQDSKDSTYSLSSTLTLSKADYEKHKVYACEVTHQGLSSPVTKSFNRGEC | 261000 M⁻¹ s⁻¹ | 0.000402 s⁻¹ | 0.9 RU | 
HC5/LC4: humanized anti-TROP2 antibody, heavy chain SEQ ID NO: 56, light chain SEQ ID NO: 61 (antibody) heavy: EVQLVQSGAEVKKPGESLKISCKGSGYTFTDYSINWVRQMPGKGLEWMGVISTYYGDASYNQKFKGQVTISADKSISTAYLQWSSLKASDTAMYYCARYGDGYNQFDYWGQGTLVTVSS[human IgG1 constant region cut from this listing] light: EIVLTQSPATLSLSPGERATLSCRVSESVDSYGNNFMHWYQQKPGQAPRLLIYRASNLESGIPARFSGSGSGTDFTLTISSLEPEDFAVYYCQQSYEDPYTFGGGTKVEIKRTVAAPSVFIFPPSDEQLKSGTASVVCLLNNFYPREAKVQWKVDNALQSGNSQESVTEQDSKDSTYSLSSTLTLSKADYEKHKVYACEVTHQGLSSPVTKSFNRGEC | 1.36e+06 M⁻¹ s⁻¹ | 0.000299 s⁻¹ | 32.5 RU | 
HC3/LC5 (antibody) heavy: QVQLVQSGAEVKKPGASVKVSCKASGYTFTDYSINWVRQAPGQRLEWMGVISTYYGDASYNQKFKGRVTITRDTSASTAYMELSSLRSEDTAVYYCARYGDGYNQFDYWGQGTLVTVSS[human IgG1 constant region cut from this listing] light: DIQMTQSPSSLSASVGDRVTITCRVSESVDSYGNNFMHWYQQKPGKAPKLLIYRASNLESGVPSRFSGSGSGTDFTFTISSLQPEDIATYYCQQSYEDPYTFGGGTKLEIKRTVAAPSVFIFPPSDEQLKSGTASVVCLLNNFYPREAKVQWKVDNALQSGNSQESVTEQDSKDSTYSLSSTLTLSKADYEKHKVYACEVTHQGLSSPVTKSFNRGEC | 1.32e+06 M⁻¹ s⁻¹ | 0.000151 s⁻¹ | 62.8 RU | 
HC5/LC5 (antibody) heavy: EVQLVQSGAEVKKPGESLKISCKGSGYTFTDYSINWVRQMPGKGLEWMGVISTYYGDASYNQKFKGQVTISADKSISTAYLQWSSLKASDTAMYYCARYGDGYNQFDYWGQGTLVTVSS[human IgG1 constant region cut from this listing] light: DIQMTQSPSSLSASVGDRVTITCRVSESVDSYGNNFMHWYQQKPGKAPKLLIYRASNLESGVPSRFSGSGSGTDFTFTISSLQPEDIATYYCQQSYEDPYTFGGGTKLEIKRTVAAPSVFIFPPSDEQLKSGTASVVCLLNNFYPREAKVQWKVDNALQSGNSQESVTEQDSKDSTYSLSSTLTLSKADYEKHKVYACEVTHQGLSSPVTKSFNRGEC | 1.42e+06 M⁻¹ s⁻¹ | 0.000338 s⁻¹ | 61.3 RU | 
HC1/LC3: humanized anti-TROP2 antibody, heavy chain SEQ ID NO: 52, light chain SEQ ID NO: 60 (antibody) heavy: QVQLVQSGAEVKKPGASVKVSCKASGYTFTDYSINWVRQAPGQGLEWMGVISTYYGDASYNQKFKGRVTMTTDTSTSTAYMELRSLRSDDTAVYYCARYGDGYNQFDYWGQGTMVTVSS[human IgG1 constant region cut from this listing] light: DIVMTQSPLSLPVTPGEPASISCRVSESVDSYGNNFMHWYLQKPGQSPQLLIYRASNLESGVPDRFSGSGSGTDFTLKISRVEAEDVGVYYCQQSYEDPYTFGGGTKVEIKRTVAAPSVFIFPPSDEQLKSGTASVVCLLNNFYPREAKVQWKVDNALQSGNSQESVTEQDSKDSTYSLSSTLTLSKADYEKHKVYACEVTHQGLSSPVTKSFNRGEC | 1.62e+06 M⁻¹ s⁻¹ | 0.000196 s⁻¹ | 35.1 RU | 
HC4/LC2: humanized anti-TROP2 antibody, heavy chain SEQ ID NO: 55, light chain SEQ ID NO: 59 (antibody) heavy: QVQLVQSGAEVKKPGSSVKVSCKASGYTFTDYSINWVRQAPGQGLEWMGVISTYYGDASYNQKFKGRVTITADESTSTAYMELSSLRSEDTAVYYCARYGDGYNQFDYWGQGTLVTVSS[human IgG1 constant region cut from this listing] light: DVVMTQSPLSLPVTLGQPASISCRVSESVDSYGNNFMHWFQQRPGQSPRRLIYRASNLESGVPDRFSGSGSGTDFTLKISRVEAEDVGVYYCQQSYEDPYTFGGGTKVEIKRTVAAPSVFIFPPSDEQLKSGTASVVCLLNNFYPREAKVQWKVDNALQSGNSQESVTEQDSKDSTYSLSSTLTLSKADYEKHKVYACEVTHQGLSSPVTKSFNRGEC | 184000 M⁻¹ s⁻¹ | 0.000984 s⁻¹ | 2.8 RU | 
HC1/LC2: humanized anti-TROP2 antibody, heavy chain SEQ ID NO: 52, light chain SEQ ID NO: 59 (antibody) heavy: QVQLVQSGAEVKKPGASVKVSCKASGYTFTDYSINWVRQAPGQGLEWMGVISTYYGDASYNQKFKGRVTMTTDTSTSTAYMELRSLRSDDTAVYYCARYGDGYNQFDYWGQGTMVTVSS[human IgG1 constant region cut from this listing] light: DVVMTQSPLSLPVTLGQPASISCRVSESVDSYGNNFMHWFQQRPGQSPRRLIYRASNLESGVPDRFSGSGSGTDFTLKISRVEAEDVGVYYCQQSYEDPYTFGGGTKVEIKRTVAAPSVFIFPPSDEQLKSGTASVVCLLNNFYPREAKVQWKVDNALQSGNSQESVTEQDSKDSTYSLSSTLTLSKADYEKHKVYACEVTHQGLSSPVTKSFNRGEC | 249000 M⁻¹ s⁻¹ | 0.00102 s⁻¹ | 2 RU | 4.09 nM
HC3/LC2: humanized anti-TROP2 antibody, heavy chain SEQ ID NO: 54, light chain SEQ ID NO: 59 (antibody) heavy: QVQLVQSGAEVKKPGASVKVSCKASGYTFTDYSINWVRQAPGQRLEWMGVISTYYGDASYNQKFKGRVTITRDTSASTAYMELSSLRSEDTAVYYCARYGDGYNQFDYWGQGTLVTVSS[human IgG1 constant region cut from this listing] light: DVVMTQSPLSLPVTLGQPASISCRVSESVDSYGNNFMHWFQQRPGQSPRRLIYRASNLESGVPDRFSGSGSGTDFTLKISRVEAEDVGVYYCQQSYEDPYTFGGGTKVEIKRTVAAPSVFIFPPSDEQLKSGTASVVCLLNNFYPREAKVQWKVDNALQSGNSQESVTEQDSKDSTYSLSSTLTLSKADYEKHKVYACEVTHQGLSSPVTKSFNRGEC | 169000 M⁻¹ s⁻¹ | 0.00177 s⁻¹ | 3.5 RU | 
HC3/LC4: humanized anti-TROP2 antibody, heavy chain SEQ ID NO: 54, light chain SEQ ID NO: 61 (antibody) heavy: QVQLVQSGAEVKKPGASVKVSCKASGYTFTDYSINWVRQAPGQRLEWMGVISTYYGDASYNQKFKGRVTITRDTSASTAYMELSSLRSEDTAVYYCARYGDGYNQFDYWGQGTLVTVSS[human IgG1 constant region cut from this listing] light: EIVLTQSPATLSLSPGERATLSCRVSESVDSYGNNFMHWYQQKPGQAPRLLIYRASNLESGIPARFSGSGSGTDFTLTISSLEPEDFAVYYCQQSYEDPYTFGGGTKVEIKRTVAAPSVFIFPPSDEQLKSGTASVVCLLNNFYPREAKVQWKVDNALQSGNSQESVTEQDSKDSTYSLSSTLTLSKADYEKHKVYACEVTHQGLSSPVTKSFNRGEC | 1.37e+06 M⁻¹ s⁻¹ | 0.000192 s⁻¹ | 37.2 RU | 
